According to PubChem BioAssay (NCATS):
Values joined by “and” are separate entries in the source; they are usually repeats but may differ in a detail not shown here. Identical values can stand only once. Inconclusive means that the source gave no clear call. Such entries were picked first, then a sample of the others. Potencies beside an inconclusive call are fits to weak or partial responses and may not hold up. Active and inactive are the calls of the source. Unless noted, calls come from the whole dose curve; as a rule, active = well fitted inhibition curve with a large enough effect; inconclusive = small, poorly fitted or top-dose-only effect; inactive = flat fitted curve, though single readings scatter.

System: not listed separately
Test: P-glycoprotein substrates identified in KB-8-5-11 adenocarcinoma cell line, qHTS therapeutic library screen (AID 1346987); note: nearly all actives have a fitted effect of over 65% in size
Details: KB-8-5-11 (P-gp overexpressing) viability, CellTiter-Glo, 72 h; series mostly up to 44.5 µM; activity change, negative = cytotoxicity: at the top concentration
In short: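 Human cervical adenocarcinoma KB-8-5-11 cells, selected in colchicine to over-express P-gp and assayed without it, were exposed for 72 h to titrated compounds. An ATP-based luminescent viability signal gave AC50.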
% is set by controls: 0 for no effect and ±100 for the full control effect; potency is the fitted concentration of half-maximal effect; tags give direction and shape of the fitted curve.

Compound | Potency | activity change, negative = cytotoxicity
C[C@]12CCC(=O)C=C1CC[C@@H]1[C@@H]2CC[C@]2(C)C(=O)CC[C@@H]12 | inconclusive: 20.6 µM [inhibitor, single point] | 
CCNc1nc(Cl)nc(NCC)n1 |  | inactive: -1.76%
C=C[C@@H]1CN2CCC1C[C@H]2[C@H](O)c1ccnc2ccccc12 (some centres not stated) | inconclusive: 26.4 µM [inhibitor, single point] | 
CC(C)Nc1ccc(Nc2ccccc2)cc1 | active: 20.6 µM | 
CCCCCCCCCCCCCCCC[N+](C)(C)C | inconclusive: 20.6 µM [inhibitor, single point] | 
CCC(=O)O[C@H]1CC[C@H]2[C@@H]3CCC4=CC(=O)CC[C@]4(C)[C@H]3CC[C@]12C | active: 2.78 µM | 
Cc1cc(O)ccc1Cl |  | inactive: 4.75%
CCCCC1C(=O)NC(=O)N(C2CCCCC2)C1=O (configuration not stated) |  | inactive: -2.16%
C[C@@H]1Cc2c(Cl)cc(C(=O)N[C@@H](Cc3ccccc3)C(=O)O)c(O)c2C(=O)O1 | inconclusive: 11.4 µM [inhibitor, single point] | 
C=CCC1=C(C)C(OC(=O)C2C(C=C(C)C)C2(C)C)CC1=O (configuration not stated) | inconclusive: 56.2 µM [inhibitor, single point] | 
O=C(CCl)c1ccc(Cl)cc1Cl | active: 2.91 µM and active: 11.2 µM | 

System: not listed separately
Test: Natriuretic polypeptide receptor (hNpr1) antagonism - Pilot counterscreen GloSensor control cell line (AID 1347045; calls by dose curve)
Details: HEK293 cGMP GloSensor cells, SNP-stimulated luminescence, 20 min; series mostly up to 38.3 µM; activity change, negative = inhibition: at the top concentration
In short: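 The SNP-driven cGMP luminescence signal (50 uM, 20 min, room temperature) was measured in GloSensor HEK293 control cells. Compounds were tested as a LOPAC titration series and preincubated for 30-50 min.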

Compound | Potency | activity change, negative = inhibition
S=C(NC1CCCCC1)N1CCC(c2cnc[nH]2)CC1 | inconclusive: 26.1 nM [inhibitor, full curve, poor fit] | 
CC(Cc1ccc(O)cc1)NCC(O)c1cc(O)cc(O)c1 (configuration not stated) |  | inactive: 0.614%
CC(C)(C)NCC(O)c1ccccc1Cl (configuration not stated) |  | inactive: 0.959%
CC(C)N(CCC(C(N)=O)(c1ccccc1)c1ccccn1)C(C)C (configuration not stated) | inconclusive: 14.7 nM [inhibitor, full curve, poor fit] | 
CCCCC/C=C\C/C=C\C/C=C\C/C=C\CCCC(=O)NCC(=O)O |  | inactive: 1.69%
Cc1cccc(C)c1NC1=NCCCS1 |  | inactive: 7.34%
CCCN1CCC[C@@H]2Cc3[nH]ncc3C[C@H]21 | inconclusive: 2070 nM [inhibitor, partial curve, poor fit] | 

Biological target: Atrial natriuretic peptide receptor 1 (Homo sapiens) (UniProt P16066)
Sequence of UniProt P16066 (P16066 whole entry, looked up): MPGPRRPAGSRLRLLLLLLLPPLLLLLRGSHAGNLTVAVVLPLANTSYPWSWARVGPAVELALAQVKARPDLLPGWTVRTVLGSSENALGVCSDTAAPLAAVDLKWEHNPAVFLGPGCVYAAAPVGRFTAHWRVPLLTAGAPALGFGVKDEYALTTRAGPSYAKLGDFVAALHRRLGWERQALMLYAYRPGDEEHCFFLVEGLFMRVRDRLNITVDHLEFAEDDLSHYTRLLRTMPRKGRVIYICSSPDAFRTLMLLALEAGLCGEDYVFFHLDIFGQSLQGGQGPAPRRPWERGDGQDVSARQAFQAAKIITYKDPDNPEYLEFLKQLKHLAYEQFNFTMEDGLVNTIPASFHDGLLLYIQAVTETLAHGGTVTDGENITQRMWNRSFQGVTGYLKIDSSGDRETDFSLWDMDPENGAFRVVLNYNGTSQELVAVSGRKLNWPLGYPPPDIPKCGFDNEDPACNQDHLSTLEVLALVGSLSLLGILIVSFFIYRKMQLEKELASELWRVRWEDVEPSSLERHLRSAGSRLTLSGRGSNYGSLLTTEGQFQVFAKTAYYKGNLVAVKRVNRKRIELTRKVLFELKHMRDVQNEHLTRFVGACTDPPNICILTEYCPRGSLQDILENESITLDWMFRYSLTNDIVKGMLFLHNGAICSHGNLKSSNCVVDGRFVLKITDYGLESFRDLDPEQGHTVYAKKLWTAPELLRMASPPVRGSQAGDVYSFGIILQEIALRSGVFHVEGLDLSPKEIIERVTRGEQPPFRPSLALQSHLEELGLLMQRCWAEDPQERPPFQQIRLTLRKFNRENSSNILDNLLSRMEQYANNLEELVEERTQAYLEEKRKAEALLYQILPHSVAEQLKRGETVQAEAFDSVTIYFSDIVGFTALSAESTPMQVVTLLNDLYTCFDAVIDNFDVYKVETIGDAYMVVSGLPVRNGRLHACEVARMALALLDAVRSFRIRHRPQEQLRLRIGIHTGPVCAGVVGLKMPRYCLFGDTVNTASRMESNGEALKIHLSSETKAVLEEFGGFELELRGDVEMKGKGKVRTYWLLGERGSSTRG
Test: Natriuretic polypeptide receptor (hNpr1) antagonism - Pilot screen (AID 1347049; calls by dose curve;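 note: HEK293 cells with hNpr1 and GloSensor cGMP luciferase stimulated by 0.1 nM hNppA; agonist-evoked cGMP luminescence read 20 min after hNppA addition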)
Details: hNpr1 cells, antagonist mode cGMP read-out; series mostly up to 57.5 µM; activity change, negative = inhibition: at the top concentration
In short: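 Receptor antagonism read as cGMP-dependent luminescence in hNpr1/pGS-40F HEK293 cells: pre-read after 30 min compound exposure, post-read 20 min after hNppA agonist at 0.1 nM final, all at room temperature, protected from light; A-71915 titration as control.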

Compound | activity change, negative = inhibition | Potency
NCC(O)c1ccc(O)cc1 (configuration not stated) | inactive: -1.31% | 
C#CCN[C@H](C)Cc1ccccc1 |  | inconclusive: 8.49 µM [inhibitor, single point]
Cc1cccc(C)c1NC1=NCCCS1 |  | inconclusive: 37.9 µM [inhibitor, single point]
CC(=O)[C@H]1CC[C@H]2[C@@H]3CC[C@H]4C[C@](C)(O)CC[C@]4(C)[C@H]3CC[C@]12C |  | inconclusive: 7.57 µM [inhibitor, single point]
